Experimental data reported in a collection of fitness landscapes (doi:10.1038/s41467-024-54723-y).
In all, about 18,000 sequences were measured (“TetR repression strength (sort-seq, GFP reporter)”: median about 0.23, highest 2% from about 0.68 on). The list shows a part of the results.

biological target: TetR (class B, Tn10) (UniProt P04483); experiment: TetR repression strength (sort-seq, GFP reporter) (relative to tetO2 = 1); higher = stronger repression; conditions: E. coli
Summary of the method: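 Repression strength is the top bin index plus one minus the read-weighted mean bin, relative to the unaltered operator's value. A low-copy library in E. coli SIG10-MAX randomized eight operator positions between a constitutive promoter and sfGFP, with TetR expressed constitutively; cells grew 5 h at 37 °C in LB with 50 µg/mL chloramphenicol and 10^6 were FACS-sorted into 13 bins that were each Illumina-sequenced. Three independent transformations were averaged, keeping only members with ≥30 reads in all replicates and CV ≤0.5.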

UniProt P04483, sequence (P04483 whole entry): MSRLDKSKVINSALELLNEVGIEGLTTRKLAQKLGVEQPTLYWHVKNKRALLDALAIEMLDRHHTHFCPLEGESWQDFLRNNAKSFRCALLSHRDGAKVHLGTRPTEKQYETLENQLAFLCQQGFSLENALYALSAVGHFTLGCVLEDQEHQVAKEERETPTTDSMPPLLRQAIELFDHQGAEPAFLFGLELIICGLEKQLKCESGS

Sequence | TetR repression strength
TCCCATCTAGTGGTGGAGA | 0.22
TCCCAGTTAGTGCGCGAGA | 0.366
TCCCCGCAAGTGCTAGAGA | 0.224
TCCCTTAAAGTTATAGAGA | 0.137
TCCCACTGAGTGTGGGAGA | 0.189
TCCCTAGTAGTGCTTGAGA | 0.594
TCCCCAGCAGTTGGAGAGA | 0.256
TCCCGAGCAGTAGGAGAGA | 0.309
TCCCCTGTAGTCGGGGAGA | 0.858
TCCCGATCAGTGCTAGAGA | 0.657
TCCCTGGGAGTCGCTGAGA | 0.413
TCCCGAGAAGTTTCAGAGA | 0.0247
TCCCACCGAGTGGTGGAGA | 0.203
TCCCGAGAAGTCGCAGAGA | 0
TCCCTTCGAGTGTTGGAGA | 0.298
TCCCCAGGAGTTGGTGAGA | 0.0803
TCCCGCTAAGTATTGGAGA | 0.138
TCCCAGTCAGTTAGTGAGA | 0.411
TCCCAAGGAGTTCGTGAGA | 0.104
TCCCGGCTAGTCGAGGAGA | 0.232
TCCCCTTAAGTTAATGAGA | 0.515
TCCCGGGTAGTTGTTGAGA | 0.204
TCCCGAAGAGTGGTGGAGA | 0.219
TCCCGGTCAGTGTGCGAGA | 0.412
TCCCTGTTAGTGGCAGAGA | 0.1
TCCCGTCTAGTGAAAGAGA | 0.347

Sequence | TetR repression strength
TCCCAGGAAGTGGGTGAGA | 0.229
TCCCCGCAAGTCCTCGAGA | 0.408
TCCCACAGAGTACGCGAGA | 0.116
TCCCCGCTAGTGATCGAGA | 0.445
TCCCGCCGAGTGGACGAGA | 0.514
TCCCTCCGAGTAAAGGAGA | 0.288
TCCCGGAAAGTCGTGGAGA | 0.244
TCCCAGACAGTGCGAGAGA | 0.219
TCCCCGGAAGTGGCTGAGA | 0.257
TCCCCACTAGTGCGAGAGA | 0.00691
TCCCACTCAGTGACGGAGA | 0.269
TCCCCATTAGTGGGAGAGA | 0.14
TCCCTTAAAGTGTGAGAGA | 0.104
TCCCGTAGAGTCTTCGAGA | 0.289
TCCCAGGAAGTGAGCGAGA | 0.21
TCCCGGGTAGTAGGTGAGA | 0.155
TCCCTACAAGTCTACGAGA | 0.269
TCCCAACGAGTGGCCGAGA | 0.308
TCCCGTGGAGTAGCTGAGA | 0.497
TCCCAATAAGTCATCGAGA | 0.4
TCCCCGAGAGTGGGTGAGA | 0.0977
TCCCCAGGAGTCAAGGAGA | 0.177
TCCCGCGGAGTAAAGGAGA | 0.207
TCCCATACAGTTGAGGAGA | 0.0487
TCCCCAGTAGTCGATGAGA | 0.222
TCCCGGCAAGTTGAGGAGA | 0.0553

Sequence | TetR repression strength
TCCCCATAAGTCTTGGAGA | 0.242
TCCCAAAGAGTCGCAGAGA | 0.308
TCCCTTGGAGTGCTGGAGA | 0.415
TCCCGCACAGTAGGGGAGA | 0.126
TCCCAGTCAGTGGTGGAGA | 0.305
TCCCTGGCAGTGGTGGAGA | 0.121
TCCCGTACAGTGGCTGAGA | 0.446
TCCCTGAGAGTGATTGAGA | 0.239
TCCCCTAAAGTTGATGAGA | 0.372
TCCCGACCAGTCGATGAGA | 0.171
TCCCATTCAGTGATAGAGA | 0.707
TCCCACACAGTAGGGGAGA | 0.218
TCCCTGATAGTTCACGAGA | 0.294
TCCCTAGTAGTTTATGAGA | 0.215
TCCCTTCTAGTGGCGGAGA | 0.39
TCCCACGAAGTACTAGAGA | 0.188
TCCCCTTCAGTGTTAGAGA | 0.458
TCCCAGGAAGTGTCAGAGA | 0.0945
TCCCACGTAGTTAGGGAGA | 0.19
TCCCACATAGTATGTGAGA | 1.23
TCCCCTGGAGTCGGTGAGA | 0.364
TCCCGCATAGTGAAAGAGA | 0.398
TCCCCGAAAGTAAAAGAGA | 0.272
TCCCGTTGAGTGGCAGAGA | 0.291
TCCCAACCAGTGATTGAGA | 0.47
TCCCTTCCAGTAACTGAGA | 0.401

Sequence | TetR repression strength
TCCCCGCAAGTCCATGAGA | 0.354
TCCCGGGCAGTACAGGAGA | 0.192
TCCCGGCGAGTAAGCGAGA | 0.263
TCCCAGGTAGTTGCTGAGA | 0.167
TCCCTAACAGTGAGTGAGA | 0.514
TCCCTAAGAGTTGGGGAGA | 0.243
TCCCAACGAGTGCTGGAGA | 0.237
TCCCACGGAGTTGTAGAGA | 0.148
TCCCCAAAAGTTCGAGAGA | 0.117
TCCCGATCAGTCTTAGAGA | 0.455
TCCCGGACAGTCAGAGAGA | 0.208
TCCCTATGAGTGCGTGAGA | 0.227
TCCCTGTGAGTTCTTGAGA | 0.121
TCCCCATTAGTAGTCGAGA | 1.01
TCCCCAATAGTGTTAGAGA | 0.318
TCCCGTAGAGTGGTAGAGA | 0.332
TCCCAAATAGTGGGAGAGA | 0.214
TCCCGTCGAGTGAAAGAGA | 0.69
TCCCGTGAAGTAACGGAGA | 0.112
TCCCTTCCAGTACTGGAGA | 0.388
TCCCACTAAGTTTTTGAGA | 0.525
TCCCTGTCAGTTCCGGAGA | 0.256
TCCCCAATAGTGGGGGAGA | 0.223
TCCCATGCAGTCCATGAGA | 0.109
TCCCGAGTAGTCGAGGAGA | 0.159
TCCCCTGAAGTAGATGAGA | 0.263

Sequence | TetR repression strength
TCCCGGACAGTCATCGAGA | 0.216
TCCCCTAAAGTGTGGGAGA | 0.113
TCCCGATTAGTCGTGGAGA | 0.415
TCCCGGACAGTCCAAGAGA | 0.377
TCCCTATCAGTAGGCGAGA | 0.414
TCCCTAATAGTTGCTGAGA | 0.214
TCCCGAAAAGTGCAGGAGA | 0.26
TCCCTAATAGTGATAGAGA | 0.614
TCCCGATTAGTTAGCGAGA | 0.0992
TCCCATGCAGTGCAGGAGA | 0.229
TCCCGCGAAGTCCCTGAGA | 0.437
TCCCTCCAAGTGCGTGAGA | 0.0321
TCCCGTCAAGTTGATGAGA | 0.0499
TCCCCGTTAGTTTCAGAGA | 0.2
TCCCAAGGAGTTTTAGAGA | 0.318
TCCCTAGTAGTGTTGGAGA | 0.407
TCCCGAGGAGTGACGGAGA | 0.319
TCCCGCGAAGTCCTCGAGA | 0.245
TCCCCTGGAGTTTGAGAGA | 0.138
TCCCGGCAAGTGAGCGAGA | 0.118
TCCCTGTGAGTTGGTGAGA | 0.656
TCCCGTACAGTCCACGAGA | 0.3
TCCCCAGGAGTCGTTGAGA | 0.279
TCCCGGGTAGTGGAAGAGA | 0.331
TCCCCTGAAGTTTACGAGA | 0.2
TCCCTCGGAGTCTGCGAGA | 0.522

Sequence | TetR repression strength
TCCCAGTTAGTCTAAGAGA | 0.174
TCCCTAGGAGTATGCGAGA | 0.202
TCCCCGAGAGTGCGAGAGA | 0.162
TCCCGGGGAGTGGGAGAGA | 0.192
TCCCTTCTAGTTGGTGAGA | 0.346
TCCCTGTTAGTGCCGGAGA | 0.127
TCCCAATCAGTAATAGAGA | 0.529
TCCCGGAAAGTGCTGGAGA | 0.231
TCCCCGGCAGTTCTGGAGA | 0.276
TCCCGGCGAGTATTAGAGA | 0.31
TCCCAGTTAGTTGCCGAGA | 0.0275
TCCCCTTAAGTTGTCGAGA | 0.517
TCCCTTTAAGTGCAAGAGA | 0.325
TCCCGCTGAGTGCGTGAGA | 0.372
TCCCCTTTAGTAGTGGAGA | 0.282
TCCCCACCAGTTACGGAGA | 0.0904
TCCCTGGGAGTACCAGAGA | 0.524
TCCCGCTGAGTCGGGGAGA | 0.364
TCCCATTGAGTGGAAGAGA | 0.184
TCCCTTACAGTAGGAGAGA | 0.274
TCCCGCAGAGTCGGGGAGA | 0.2
TCCCGGAAAGTAGACGAGA | 0.0346
TCCCCCGCAGTGGTAGAGA | 0.267
TCCCTGGGAGTACGGGAGA | 0.255
TCCCCGATAGTGTTAGAGA | 0.244
TCCCTATTAGTTGGAGAGA | 0.218

Sequence | TetR repression strength
TCCCGGATAGTCTTGGAGA | 0.191
TCCCTCTGAGTCCGTGAGA | 0.316
TCCCGCGGAGTGCCGGAGA | 0.254
TCCCTCCGAGTTCACGAGA | 0.396
TCCCTGCAAGTGTCAGAGA | 0.218
TCCCAATCAGTTGAAGAGA | 0.279
TCCCTGAGAGTTGTGGAGA | 0.18
TCCCCGGCAGTCCGTGAGA | 0.0993
TCCCTAACAGTAGTCGAGA | 0.492
TCCCGTTTAGTGTAAGAGA | 0.191
TCCCGTGCAGTGCAAGAGA | 0.472
TCCCGACGAGTGTTGGAGA | 0.453
TCCCGGCAAGTGGCGGAGA | 0.207
TCCCTTGAAGTTCACGAGA | 0.246
TCCCACAGAGTGGGAGAGA | 0.133
TCCCGGAAAGTTTAGGAGA | 0.211
TCCCAAAGAGTGCCGGAGA | 0.168
TCCCACCCAGTTAAGGAGA | 0.329
TCCCTAGCAGTCACTGAGA | 0
TCCCAGAAAGTCGGAGAGA | 0.254
TCCCGTGGAGTCCAGGAGA | 0.259
TCCCTAGTAGTGGGTGAGA | 0.143
TCCCAGCGAGTGGTGGAGA | 0.0858
TCCCGAGTAGTTGCGGAGA | 0.169
TCCCTGTGAGTCAAAGAGA | 0.154
TCCCATGGAGTGATGGAGA | 0.222

Sequence | TetR repression strength
TCCCTGTAAGTCGCGGAGA | 0.246
TCCCTGGAAGTGCGAGAGA | 0.119
TCCCAGTGAGTGTGCGAGA | 0.247
TCCCGGAGAGTTGCTGAGA | 0.22
TCCCGGGGAGTTTTTGAGA | 0.328
TCCCTAAAAGTGATCGAGA | 0.318
TCCCTGGTAGTCAGTGAGA | 0.0444
TCCCGAACAGTCGGTGAGA | 0.354
TCCCGTAAAGTGGTGGAGA | 0.228
TCCCCTGTAGTCGTAGAGA | 0.344
TCCCGAAAAGTTGACGAGA | 0.0056
TCCCTGTTAGTCGTTGAGA | 0.271
TCCCTGTAAGTTGTGGAGA | 0.0341
TCCCGGCTAGTGAATGAGA | 0.357
TCCCTTGTAGTGAGGGAGA | 0.19
TCCCAGAGAGTGAAAGAGA | 0.361
TCCCGACCAGTGGTGGAGA | 0.167
TCCCTAAGAGTTCATGAGA | 0.203
TCCCGGCGAGTGCTGGAGA | 0.0482
TCCCGCTTAGTCGAAGAGA | 0.389
TCCCATTGAGTCTATGAGA | 0.259
TCCCAGCAAGTATTCGAGA | 0.322
